# From PubChem BioAssay (NCATS)
# Inconclusive means that the source gave no clear call. Such entries were picked first, then a sample of the others. Where a call stands in place of a potency, no number is given. Potencies beside an inconclusive call are fits to weak or partial responses and may not hold up. The source made the active and inactive calls. The call rests on the fitted dose curve; in most records, active means well fitted inhibition curve with a large enough effect; inconclusive means small, poorly fitted or top-dose-only effect; inactive means flat fitted curve, though single readings scatter.
# Tested on: UISO
# Assay: qHTS assay to identify novel small-molecules to repurpose for Merkel cell carcinoma treatment (AID 1296009); further: nearly all actives have a fitted effect of over 60% in size
# Settings: MCC and control cell lines, CellTiter-Glo viability, 72 h; series mostly up to 46 µM
# Procedure, shortened: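 72 hr, 37 degree celsius; NPC 8-pt / MIPE 11-pt dose response; compound pinned in DMSO; CellTiter-Glo, 10 min RT, luminescence; normalized to no-cell and DMSO controls.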
# Potency means the concentration at half of the fitted maximal effect; tags describe the fitted curve by direction and shape.
row,SMILES,Potency
1,CC1(C)[C@H](O[C@H]2O[C@H](C(=O)O)[C@@H](O)[C@H](O)[C@H]2O[C@@H]2O[C@H](C(=O)O)[C@@H](O)[C@H](O)[C@H]2O)CC[C@@]2(C)[C@H]1CC[C@]1(C)[C@H]2C(=O)C=C2[C@H]3C[C@@](C)(C(=O)O)CC[C@]3(C)CC[C@]21C,inactive
2,CC(C)(C)C(=O)Oc1ccc2c(c1)nc(NC(=O)c1cccc([N+](=O)[O-])c1)n2CCCO,"inconclusive: 33.2 µM [inhibitor, single point]"
3,CS(=O)(=O)c1ccc(C2=C(c3ccccc3)C(=O)OC2)cc1,inactive
4,Clc1ccc(-c2nc3sccn3c2C=NOCc2ccc(Cl)c(Cl)c2)cc1,inactive
5,CC1COC2(CCN(c3nc(=O)c4cc(C(F)(F)F)cc([N+](=O)[O-])c4s3)CC2)O1 (stereo unspecified),inactive
6,Nc1ncnc2ccccc12,inactive
7,COc1cc2nccc(Oc3ccc(NC(=O)Nc4ccc(F)cc4F)c(F)c3)c2cc1OC,inactive
8,Cc1nc(Nc2n[nH]c3c2CN(C(=O)N[C@H](CN(C)C)c2ccccc2)C3(C)C)c2sccc2n1,active: 1.48 µM
9,CN1CCN(c2cccc(Nc3nc4c(-c5ccc(S(C)(=O)=O)cc5)cccn4n3)c2)CC1,inactive
10,NS(=O)(=O)c1ccc(Nc2nc(OCC3CCCCC3)c3[nH]cnc3n2)cc1,active: 2.35 µM
11,O=c1[nH]c(=O)n(C2CCCO2)cc1F (stereo unspecified),inactive
12,Cc1cc(O)c2c(c1)C(=O)c1cccc(O)c1C2=O,inactive
13,N#CC(c1ccnc(NCCc2cccnc2)n1)c1nc2ccccc2s1 (stereo unspecified),inactive
14,c1ccc(-c2nn3c(c2-c2ccnc4cc(OCCN5CCOCC5)ccc24)CCC3)nc1,"inconclusive: 11.8 µM [inhibitor, partial curve]"
15,O=C(CO)N1CCC(c2[nH]nc(-c3ccc(Cl)cc3)c2-c2ccncn2)CC1,"inconclusive: 16.6 µM [inhibitor, partial curve]"
16,C[C@]12CCC3c4ccc(O)cc4CCC3C1CCC2=O (stereo partly specified),"inconclusive: 14.8 µM [inhibitor, partial curve]"
17,COc1ccc2nc3cc(Cl)ccc3c(Nc3cc(CN4CCCC4)c(O)c(CN4CCCC4)c3)c2n1,inactive
18,COc1cc(O)c2c(c1)C(=O)c1cc(C)cc(O)c1C2=O,inactive

row,SMILES,Potency
1,C[C@@]1(c2cc(-c3cncnc3)c(F)cc2F)CCSC(N)=N1,inactive
2,CN[C@@H](C)C(=O)N[C@H]1CCCC[C@H]2CC[C@@H](C(=O)N[C@@H](c3ccccc3)c3cn(CCCCc4ccc(CCCCn5cc([C@@H](NC(=O)[C@@H]6CC[C@@H]7CCCC[C@H](NC(=O)[C@H](C)NC)C(=O)N76)c6ccccc6)nn5)cc4)nn3)N2C1=O,"inconclusive: 0.0662 µM [inhibitor, full curve, poor fit]"
3,CCN(C(=O)c1c(O)c2c(Cl)cccc2n(C)c1=O)c1ccccc1,"inconclusive: 11.8 µM [inhibitor, full curve]"
4,Cc1c[nH]c(C=C2C(=O)Nc3ccccc32)c1CCC(=O)O,"inconclusive: 18.7 µM [inhibitor, partial curve]"
5,CC=C(C)C(=O)O[C@H]1C(C)=C[C@]23C(=O)[C@@H](C=C(CO)[C@@H](O)[C@]12O)[C@H]1[C@@H](C[C@H]3C)C1(C)C,"inconclusive: 0.526 µM [inhibitor, full curve]"
6,C[C@]12CC[C@@H]3c4ccc(O)cc4C[C@@H](CCCCCCCCCS(=O)CCCC(F)(F)C(F)(F)F)[C@H]3[C@H]1CC[C@H]2O (stereo partly specified),"inconclusive: 23.5 µM [inhibitor, partial curve, poor fit]"
7,COC(=O)N1CCN(Cc2cccc(NC(=O)Nc3ccc(C)nc3)c2F)CC1,inactive
8,N#CNC(=NCCCCCCOc1ccc(Cl)cc1)Nc1ccncc1,active: 0.0059 µM
9,CC(C)n1cnc2c(NCCCCCCNC(=O)OC(C)(C)C)nc(NCCO)nc21,inactive
10,COc1cc(NC(=O)c2ccc(-c3ccc(Cl)cc3)o2)cc(OC)c1,inactive
11,Clc1cc(Cl)cc(CNc2ncncc2-c2ccc3c(c2)OCO3)c1,"inconclusive: 13.2 µM [inhibitor, partial curve]"
12,Cn1c(N2CCCCS2(=O)=O)nc(C(=O)NCc2ccc(F)cc2)c(O)c1=O,inactive
13,COc1cc2ncnc(-n3nc(-c4ccccn4)nc3N)c2cc1OC,"inconclusive: 3.72 µM [inhibitor, full curve]"
14,O=C(c1cncc(Br)c1)N1CCC(N2CCCC2)CC1,inactive
15,CNC(=O)c1cc(COc2nnc(Nc3ccc(Cl)cc3)c3ccoc23)ccn1,"inconclusive: 29.6 µM [inhibitor, single point]"
16,CC[C@H](CO)Nc1nc(NCc2ccccc2)c2ncn(C(C)C)c2n1,"inconclusive: 20.9 µM [inhibitor, single point]"
17,OC[C@H]1O[C@@H](Oc2cc(O)cc(C=Cc3ccc(O)cc3)c2)[C@H](O)[C@@H](O)[C@H]1O,inactive
18,O=c1[nH]c(=O)n([C@H]2C[C@@H](O)[C@@H](CO)O2)cc1I,"inconclusive: 5.9 µM [inhibitor, full curve]"
